Assay results: patent publication US10618918B2, “Substituted boronic acids as antimicrobials” (priority 2015, dated 2020)
At least one read-out could not be matched to a standard name with certainty.

Key:
ec308 SHV-5 = assay: Tigemonam potentiation (MPC@4), strain ec308 SHV-5; format: cell-based; details: minimum BLI concentration inhibiting growth with tigemonam 4 μg/mL; tested up to 40 μg/mL
ec302 TEM-10 = assay: Tigemonam potentiation (MPC@4), strain ec302 TEM-10; format: cell-based; details: minimum BLI concentration inhibiting growth with tigemonam 4 μg/mL; tested up to 40 μg/mL
EC1010 CMY-6 = assay: Tigemonam potentiation (MPC@4), strain EC1010 CMY-6; format: cell-based; details: minimum BLI concentration inhibiting growth with tigemonam 4 μg/mL; tested up to 40 μg/mL
KP1010 SHV-12 = assay: Tigemonam potentiation (MPC@4), strain KP1010 SHV-12; details: minimum BLI concentration inhibiting growth with tigemonam 4 μg/mL; tested up to 40 μg/mL
KP1005 CTX-M-14 = assay: Aztreonam potentiation (MPC@4), strain KP1005 CTX-M-14; details: minimum BLI concentration inhibiting growth with aztreonam 4 μg/mL; tested up to 40 μg/mL
KP1009 CTX-M-15 = assay: Tigemonam potentiation (MPC@4), strain KP1009 CTX-M-15; details: minimum BLI concentration inhibiting growth with tigemonam 4 μg/mL; tested up to 40 μg/mL

Structure (SMILES): NCCn1cc(-c2ccc3c(c2C(=O)O)O[B-](O)(O)CC3)nn1 [Compound 17, Disodium; 8-[1-(2-aminoethyl)triazol-4-yl]-4,4-dihydroxy-5-oxa-4-boranuidabicyclo[4.4.0]deca-1(6),7,9-triene-7-carboxylate]
- TIG MPC4 SHV-5 ec308 (ec308 SHV-5): Z (Z = MPC@4 > 20 μg/mL)
- TIG MPC4 TEM-10 ec302 (ec302 TEM-10): Z (Z = MPC@4 > 20 μg/mL)
- TIG MPC4 CMY-6 EC1010 (EC1010 CMY-6): X (X = MPC@4 ≤ 5 μg/mL)
- TIG MPC4 SHV-12 KP1010 (KP1010 SHV-12): Y (Y = 5 μg/mL < MPC@4 ≤ 20 μg/mL)
- AZT MPC4 CTX-M-14 KP1005 (KP1005 CTX-M-14): Z (Z = MPC@4 > 20 μg/mL)
- TIG MPC4 CTX-M-15 KP1009 (KP1009 CTX-M-15): Z (Z = MPC@4 > 20 μg/mL)

Structure (SMILES): CS(=O)(=O)c1ccc2c(c1C(=O)O)OB(O)CC2 [Compound 39, 2-Hydroxy-7-methylsulfonyl-3,4-dihydro-1,2-benzoxaborinine-8-carboxylic acid]
- TIG MPC4 SHV-5 ec308 (ec308 SHV-5): X (X = MPC@4 ≤ 5 μg/mL)
- TIG MPC4 TEM-10 ec302 (ec302 TEM-10): Y (Y = 5 μg/mL < MPC@4 ≤ 20 μg/mL)
- TIG MPC4 CMY-6 EC1010 (EC1010 CMY-6): X (X = MPC@4 ≤ 5 μg/mL)
- TIG MPC4 SHV-12 KP1010 (KP1010 SHV-12): X (X = MPC@4 ≤ 5 μg/mL)
- AZT MPC4 CTX-M-14 KP1005 (KP1005 CTX-M-14): X (X = MPC@4 ≤ 5 μg/mL)
- TIG MPC4 CTX-M-15 KP1009 (KP1009 CTX-M-15): X (X = MPC@4 ≤ 5 μg/mL)

Structure (SMILES): O=C([O-])c1c(CSc2nncs2)ccc2c1O[B-](O)(O)CC2.[Na+].[Na+] [Compound 20, Disodium; 4,4-dihydroxy-8-(1,3,4-thiadiazol-2-ylsulfanylmethyl)-5-oxa-4-boranuidabicyclo[4.4.0]deca-1(6),7,9-triene-7-carboxylate]
- TIG MPC4 SHV-5 ec308 (ec308 SHV-5): Y (Y = 5 μg/mL < MPC@4 ≤ 20 μg/mL)
- TIG MPC4 TEM-10 ec302 (ec302 TEM-10): Y (Y = 5 μg/mL < MPC@4 ≤ 20 μg/mL)
- TIG MPC4 CMY-6 EC1010 (EC1010 CMY-6): X (X = MPC@4 ≤ 5 μg/mL)
- TIG MPC4 SHV-12 KP1010 (KP1010 SHV-12): X (X = MPC@4 ≤ 5 μg/mL)
- AZT MPC4 CTX-M-14 KP1005 (KP1005 CTX-M-14): Y (Y = 5 μg/mL < MPC@4 ≤ 20 μg/mL)
- TIG MPC4 CTX-M-15 KP1009 (KP1009 CTX-M-15): Y (Y = 5 μg/mL < MPC@4 ≤ 20 μg/mL)

Structure (SMILES): O=C([O-])c1c(OCC#CCN2CCC2)ccc2c1O[B-](O)(O)CC2.[Na+].[Na+] [Compound 62, Disodium; 8-[4-(azetidin-1-yl)but-2-ynoxy]-4,4-dihydroxy-5-oxa-4-boranuidabicyclo[4.4.0]deca-1(6),7,9-triene-7-carboxylate]
- TIG MPC4 SHV-5 ec308 (ec308 SHV-5): Y (Y = 5 μg/mL < MPC@4 ≤ 20 μg/mL)
- TIG MPC4 TEM-10 ec302 (ec302 TEM-10): Y (Y = 5 μg/mL < MPC@4 ≤ 20 μg/mL)
- TIG MPC4 CMY-6 EC1010 (EC1010 CMY-6): X (X = MPC@4 ≤ 5 μg/mL)
- TIG MPC4 SHV-12 KP1010 (KP1010 SHV-12): X (X = MPC@4 ≤ 5 μg/mL)
- AZT MPC4 CTX-M-14 KP1005 (KP1005 CTX-M-14): X (X = MPC@4 ≤ 5 μg/mL)
- TIG MPC4 CTX-M-15 KP1009 (KP1009 CTX-M-15): Y (Y = 5 μg/mL < MPC@4 ≤ 20 μg/mL)

Structure (SMILES): O=C(O)c1cccc2c1OB(O)CC2 [Compound 5, 2-HYDROXY-3,4-DIHYDRO-1,2-BENZOXABORININE-8-CARBOXYLIC ACID]
- TIG MPC4 SHV-5 ec308 (ec308 SHV-5): Z (Z = MPC@4 > 20 μg/mL)
- TIG MPC4 TEM-10 ec302 (ec302 TEM-10): Y (Y = 5 μg/mL < MPC@4 ≤ 20 μg/mL)
- TIG MPC4 CMY-6 EC1010 (EC1010 CMY-6): X (X = MPC@4 ≤ 5 μg/mL)
- TIG MPC4 SHV-12 KP1010 (KP1010 SHV-12): Y (Y = 5 μg/mL < MPC@4 ≤ 20 μg/mL)
- AZT MPC4 CTX-M-14 KP1005 (KP1005 CTX-M-14): Z (Z = MPC@4 > 20 μg/mL)
- TIG MPC4 CTX-M-15 KP1009 (KP1009 CTX-M-15): Z (Z = MPC@4 > 20 μg/mL)

Structure (SMILES): COc1c(F)cc2c(c1C(=O)O)OB(O)CC2 [Compound 34, 6-Fluoro-2-hydroxy-7-methoxy-3,4-dihydro-1,2-benzoxaborinine-8-carboxylic acid]
- TIG MPC4 SHV-5 ec308 (ec308 SHV-5): X (X = MPC@4 ≤ 5 μg/mL)
- TIG MPC4 TEM-10 ec302 (ec302 TEM-10): X (X = MPC@4 ≤ 5 μg/mL)
- TIG MPC4 CMY-6 EC1010 (EC1010 CMY-6): X (X = MPC@4 ≤ 5 μg/mL)
- TIG MPC4 SHV-12 KP1010 (KP1010 SHV-12): X (X = MPC@4 ≤ 5 μg/mL)
- AZT MPC4 CTX-M-14 KP1005 (KP1005 CTX-M-14): X (X = MPC@4 ≤ 5 μg/mL)
- TIG MPC4 CTX-M-15 KP1009 (KP1009 CTX-M-15): X (X = MPC@4 ≤ 5 μg/mL)

Structure (SMILES): COc1ccc2c(c1P(=O)(O)O)OB(O)CC2 [Compound 33, (2-Hydroxy-7-methoxy-3,4-dihydro-1,2-benzoxaborinin-8-yl)phosphonic acid]
- TIG MPC4 SHV-5 ec308 (ec308 SHV-5): Z (Z = MPC@4 > 20 μg/mL)
- TIG MPC4 TEM-10 ec302 (ec302 TEM-10): Z (Z = MPC@4 > 20 μg/mL)
- TIG MPC4 CMY-6 EC1010 (EC1010 CMY-6): X (X = MPC@4 ≤ 5 μg/mL)
- TIG MPC4 SHV-12 KP1010 (KP1010 SHV-12): Z (Z = MPC@4 > 20 μg/mL)
- AZT MPC4 CTX-M-14 KP1005 (KP1005 CTX-M-14): Z (Z = MPC@4 > 20 μg/mL)
- TIG MPC4 CTX-M-15 KP1009 (KP1009 CTX-M-15): Z (Z = MPC@4 > 20 μg/mL)

Structure (SMILES): C#Cc1ccc2c(c1C(=O)[O-])O[B-](O)(O)CC2.[Na+].[Na+] [Compound 18, Disodium; 8-ethynyl-4,4-dihydroxy-5-oxa-4-boranuidabicyclo[4.4.0]deca-1(6),7,9-triene-7-carboxylate]
- TIG MPC4 SHV-5 ec308 (ec308 SHV-5): Z (Z = MPC@4 > 20 μg/mL)
- TIG MPC4 TEM-10 ec302 (ec302 TEM-10): X (X = MPC@4 ≤ 5 μg/mL)
- TIG MPC4 CMY-6 EC1010 (EC1010 CMY-6): X (X = MPC@4 ≤ 5 μg/mL)
- TIG MPC4 SHV-12 KP1010 (KP1010 SHV-12): X (X = MPC@4 ≤ 5 μg/mL)
- AZT MPC4 CTX-M-14 KP1005 (KP1005 CTX-M-14): Y (Y = 5 μg/mL < MPC@4 ≤ 20 μg/mL)
- TIG MPC4 CTX-M-15 KP1009 (KP1009 CTX-M-15): Z (Z = MPC@4 > 20 μg/mL)
